Source: paper PMC12480466
Results are given in words; binding and its absence hold for the method and conditions named. In cells and extracts the contact can be indirect. Some binding calls cover weakened binding; strength is not graded here. Tags and fused reporters may be left off the sequences shown.

Chains of the proteins cited; added tags and fusions are not shown.
UniProt O94986: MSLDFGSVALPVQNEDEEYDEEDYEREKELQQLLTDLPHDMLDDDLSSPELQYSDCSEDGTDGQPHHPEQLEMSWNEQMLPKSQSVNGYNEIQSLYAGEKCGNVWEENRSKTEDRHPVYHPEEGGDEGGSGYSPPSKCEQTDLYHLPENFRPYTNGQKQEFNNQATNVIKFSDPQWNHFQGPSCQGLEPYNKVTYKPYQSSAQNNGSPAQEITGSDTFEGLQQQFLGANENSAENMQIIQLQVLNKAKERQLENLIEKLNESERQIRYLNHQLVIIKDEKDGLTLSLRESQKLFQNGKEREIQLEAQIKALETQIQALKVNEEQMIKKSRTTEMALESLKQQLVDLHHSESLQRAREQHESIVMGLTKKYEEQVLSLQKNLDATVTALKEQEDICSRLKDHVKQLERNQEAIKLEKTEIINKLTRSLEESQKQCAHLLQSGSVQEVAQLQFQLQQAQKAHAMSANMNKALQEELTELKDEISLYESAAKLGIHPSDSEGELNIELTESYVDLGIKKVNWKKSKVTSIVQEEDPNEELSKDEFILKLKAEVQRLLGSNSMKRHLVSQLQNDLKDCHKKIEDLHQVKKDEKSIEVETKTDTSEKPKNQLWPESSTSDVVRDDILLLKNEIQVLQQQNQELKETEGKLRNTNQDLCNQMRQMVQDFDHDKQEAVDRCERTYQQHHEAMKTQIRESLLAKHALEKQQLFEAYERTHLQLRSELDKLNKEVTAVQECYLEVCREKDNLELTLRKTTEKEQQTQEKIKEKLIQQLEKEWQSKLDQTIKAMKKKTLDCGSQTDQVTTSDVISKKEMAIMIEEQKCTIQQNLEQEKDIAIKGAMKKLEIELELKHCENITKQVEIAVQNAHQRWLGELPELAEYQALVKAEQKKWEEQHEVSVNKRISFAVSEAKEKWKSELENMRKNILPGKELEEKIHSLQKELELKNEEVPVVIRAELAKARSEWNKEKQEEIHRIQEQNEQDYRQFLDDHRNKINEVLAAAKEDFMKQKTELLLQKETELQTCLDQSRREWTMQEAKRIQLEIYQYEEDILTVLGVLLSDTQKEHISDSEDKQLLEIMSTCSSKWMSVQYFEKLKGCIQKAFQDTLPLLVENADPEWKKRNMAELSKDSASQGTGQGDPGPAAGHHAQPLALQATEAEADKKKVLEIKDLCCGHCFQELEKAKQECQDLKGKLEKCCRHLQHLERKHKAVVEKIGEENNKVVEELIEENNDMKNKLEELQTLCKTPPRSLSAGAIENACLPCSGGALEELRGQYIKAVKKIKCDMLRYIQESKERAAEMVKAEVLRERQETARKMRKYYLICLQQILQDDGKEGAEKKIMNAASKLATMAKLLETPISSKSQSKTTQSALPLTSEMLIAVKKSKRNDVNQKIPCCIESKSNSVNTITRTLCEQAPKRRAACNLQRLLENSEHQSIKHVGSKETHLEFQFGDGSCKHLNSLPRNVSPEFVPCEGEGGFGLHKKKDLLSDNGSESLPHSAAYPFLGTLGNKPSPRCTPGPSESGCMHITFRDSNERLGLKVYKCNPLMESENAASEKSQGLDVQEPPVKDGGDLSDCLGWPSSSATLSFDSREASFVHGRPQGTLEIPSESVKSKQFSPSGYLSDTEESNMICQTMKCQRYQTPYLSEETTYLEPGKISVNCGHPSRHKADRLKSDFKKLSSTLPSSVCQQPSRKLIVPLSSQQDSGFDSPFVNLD
UniProt P53350: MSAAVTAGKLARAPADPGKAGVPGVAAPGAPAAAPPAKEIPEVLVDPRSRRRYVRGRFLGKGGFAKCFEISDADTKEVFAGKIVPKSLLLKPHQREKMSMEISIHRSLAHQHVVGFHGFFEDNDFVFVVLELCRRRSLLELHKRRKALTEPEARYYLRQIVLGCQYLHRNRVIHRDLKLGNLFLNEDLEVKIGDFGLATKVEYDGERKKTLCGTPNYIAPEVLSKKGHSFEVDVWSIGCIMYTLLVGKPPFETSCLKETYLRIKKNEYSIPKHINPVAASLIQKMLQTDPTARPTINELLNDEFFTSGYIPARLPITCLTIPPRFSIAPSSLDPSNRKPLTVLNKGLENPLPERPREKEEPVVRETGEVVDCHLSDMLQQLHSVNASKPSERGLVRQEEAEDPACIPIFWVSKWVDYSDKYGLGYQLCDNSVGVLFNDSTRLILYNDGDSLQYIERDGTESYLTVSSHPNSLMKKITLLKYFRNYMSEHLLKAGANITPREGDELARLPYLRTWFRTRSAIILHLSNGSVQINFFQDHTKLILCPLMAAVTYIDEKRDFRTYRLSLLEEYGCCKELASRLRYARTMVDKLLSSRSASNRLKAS

Legend:
Test in all cases: co-IP; lysates of HEK293T cells overexpressing 3×FLAG-TUFT1 only; partners blotted with their own antibodies; lysis buffer 150 mM NaCl, 50 mM HEPES, 1 mM MgCl2, 1 mM EGTA, 0.5% Triton X-100, pH 7.4; protein G-Sepharose, 4 °C
[1] = molecular target: T1, STIL (endogenous, HEK293T) (human (endogenous in HEK293T)) (UniProt Q15468)
T1 sequence: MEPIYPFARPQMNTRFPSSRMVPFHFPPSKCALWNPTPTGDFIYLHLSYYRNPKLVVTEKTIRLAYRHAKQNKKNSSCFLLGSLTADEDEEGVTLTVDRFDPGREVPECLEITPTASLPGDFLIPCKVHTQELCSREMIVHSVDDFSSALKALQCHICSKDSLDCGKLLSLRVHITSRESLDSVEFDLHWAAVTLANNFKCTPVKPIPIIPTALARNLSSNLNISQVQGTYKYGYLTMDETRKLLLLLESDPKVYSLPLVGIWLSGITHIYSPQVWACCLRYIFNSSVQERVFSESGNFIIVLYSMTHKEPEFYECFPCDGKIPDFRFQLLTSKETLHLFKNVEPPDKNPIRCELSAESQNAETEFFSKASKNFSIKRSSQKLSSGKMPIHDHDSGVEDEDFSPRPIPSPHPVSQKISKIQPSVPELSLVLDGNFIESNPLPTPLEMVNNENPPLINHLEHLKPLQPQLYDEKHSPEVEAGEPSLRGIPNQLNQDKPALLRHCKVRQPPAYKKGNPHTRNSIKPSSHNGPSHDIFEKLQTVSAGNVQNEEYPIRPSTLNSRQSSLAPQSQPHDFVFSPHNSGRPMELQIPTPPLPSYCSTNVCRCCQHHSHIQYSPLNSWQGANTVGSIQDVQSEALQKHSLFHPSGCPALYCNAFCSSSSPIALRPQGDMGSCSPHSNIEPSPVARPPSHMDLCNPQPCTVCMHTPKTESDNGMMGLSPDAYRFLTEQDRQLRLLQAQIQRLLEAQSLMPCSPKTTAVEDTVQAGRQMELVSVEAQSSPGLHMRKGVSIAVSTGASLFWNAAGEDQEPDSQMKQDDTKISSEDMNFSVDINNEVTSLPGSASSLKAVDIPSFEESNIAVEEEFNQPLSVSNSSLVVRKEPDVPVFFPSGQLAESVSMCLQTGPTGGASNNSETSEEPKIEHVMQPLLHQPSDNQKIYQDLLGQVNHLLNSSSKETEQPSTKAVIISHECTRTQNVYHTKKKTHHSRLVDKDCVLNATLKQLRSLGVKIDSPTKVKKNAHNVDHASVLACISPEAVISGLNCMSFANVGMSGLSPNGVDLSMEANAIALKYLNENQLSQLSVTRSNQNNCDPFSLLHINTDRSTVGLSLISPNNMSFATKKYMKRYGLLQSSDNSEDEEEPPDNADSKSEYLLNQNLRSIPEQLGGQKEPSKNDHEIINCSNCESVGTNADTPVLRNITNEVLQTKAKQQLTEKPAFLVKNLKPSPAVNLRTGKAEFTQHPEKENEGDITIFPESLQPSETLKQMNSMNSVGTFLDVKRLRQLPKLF

[2] = molecular target: Cep152 (endogenous, HEK293T) (human (endogenous in HEK293T)) (UniProt O94986)
[3] = molecular target: PLK1 (endogenous, HEK293T) (human (endogenous in HEK293T)) (UniProt P53350)
[4] = molecular target: T2, SAS-6 (endogenous, HEK293T) (human (endogenous in HEK293T)) (UniProt Q6UVJ0)
T2 sequence: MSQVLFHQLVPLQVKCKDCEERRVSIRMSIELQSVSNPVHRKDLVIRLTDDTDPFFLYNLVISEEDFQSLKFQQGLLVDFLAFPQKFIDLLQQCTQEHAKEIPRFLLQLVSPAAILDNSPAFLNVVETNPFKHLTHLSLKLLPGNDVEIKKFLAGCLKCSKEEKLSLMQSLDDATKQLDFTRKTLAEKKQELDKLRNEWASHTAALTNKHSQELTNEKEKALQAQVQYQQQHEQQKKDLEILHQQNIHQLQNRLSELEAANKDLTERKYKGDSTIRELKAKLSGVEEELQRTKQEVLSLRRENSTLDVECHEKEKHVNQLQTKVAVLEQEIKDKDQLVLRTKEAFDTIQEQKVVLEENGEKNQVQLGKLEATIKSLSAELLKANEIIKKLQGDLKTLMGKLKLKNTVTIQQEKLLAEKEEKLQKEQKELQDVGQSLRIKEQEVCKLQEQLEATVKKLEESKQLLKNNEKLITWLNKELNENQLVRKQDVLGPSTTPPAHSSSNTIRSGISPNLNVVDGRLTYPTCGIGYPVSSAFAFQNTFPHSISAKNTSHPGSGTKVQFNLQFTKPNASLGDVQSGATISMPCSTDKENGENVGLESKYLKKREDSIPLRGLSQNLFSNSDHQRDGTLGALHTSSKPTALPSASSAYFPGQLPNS

B1: 3×FLAG-TUFT1 (full-length, FL; WT) (protein, UniProt Q9NNX1-1 1-390)
chain: MNGTRNWCTLVDVHPEDQAAGSVDILRLTLQGELTGDELEHIAQKAGRKTYAMVSSHSAGHSLASELVESHDGHEEIIKVYLKGRSGDKMIHEKNINQLKSEVQYIQEARNCLQKLREDISSKLDRNLGDSLHRQEIQVVLEKPNGFSQSPTALYSSPPEVDTCINEDVESLRKTVQDLLAKLQEAKRQHQSDCVAFEVTLSRYQREAEQSNVALQREEDRVEQKEAEVGELQRRLLGMETEHQALLAKVREGEVALEELRSNNADCQAEREKAATLEKEVAGLREKIHHLDDMLKSQQRKVRQMIEQLQNSKAVIQSKDATIQELKEKIAYLEAENLEMHDRMEHLIEKQISHGNFSTQARAKTENPGSIRISKPPSPKPMPVIRVVET
[1]
  binding: no binding
[2]
  binding: no binding
[3]
  binding: binds
[4]
  binding: no binding
